Test results taken from the supplement of paper PMC10126150.
Sequences with one replicate were seen in a single cluster, so their values are uncertain.

Each sequence was assayed on ATP (assay: switch fluorescence ratio, 500 uM ATP over buffer (Cy3 cluster intensity, sum of 5 cycles each) (fold (ratio)); higher = stronger signal-on switching upon ATP binding). Conditions: aptamer strand: ATP DNA aptamer (quencher-CACCTGGGGGAGTATTGCGGAGGAAGG + anchor), 100 nM annealed; ATP concentration: 500 uM; one replicate.
Summary of the method: (§1)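 The fluorescence ratio divides summed target-cycle Cy3 intensity by summed buffer-cycle Cy3 intensity for each cluster and is averaged per switch-domain sequence. Cy3-labelled switching-strand clusters on a modified Illumina MiSeq flow-cell were annealed to 100 nM quencher-labelled ATP aptamer, then imaged in selection buffer and again after 15 min with 500 uM ATP at 22 °C. Five such cycles were run, with NaOH stripping and re-annealing between them, and clusters outside 100-1000 RFU were excluded.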
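Note: ATP exposure 15 min at 22 °C before imaging.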

Sequence	switch fluorescence ratio
TCGTCGGCAGCGTCAGATGTGTATAAGAGACAGTTTTTTTTTTTTTTTTTTTTTTTTTGTTC	1

The sequences below were run on ATP (assay: switch fluorescence ratio, 500 uM ATP over buffer (Cy3 cluster intensity, sum of 5 cycles each) (fold (ratio)); higher = stronger signal-on switching upon ATP binding; sequences stand for … in TCGTCGGCAGCGTCAGATGTGTATAAGAGACAGTTTTTTTTTTTTTTTTTTTTTTTTT…TC). Conditions: aptamer strand: ATP DNA aptamer (quencher-CACCTGGGGGAGTATTGCGGAGGAAGG + anchor), 100 nM annealed; ATP concentration: 500 uM; one replicate.
Summary of the method: as §1

Sequence	switch fluorescence ratio
TTTCTGCGCA	1.22
TTTCTGTTGA	0.99
TTTCTTAAC	0.97
TTTCTTCCTT	1.05
TTTCTTTACG	1.04
TTTGAATGGT	1.01
TTTGACAGCA	1.04
TTTGACGAGC	1
TTTGACTTAT	1.05
TTTGAGAACA	1
TTTGAGATGA	1.05
TTTGAGATTC	0.976
TTTGAGCAGC	0.91
TTTGAGGTTC	1.01
TTTGCACCCA	1.19
TTTGCCCCC	1.3
TTTGCGAATT	1.02
TTTGCGTCCC	1.09
TTTGCTACGA	1
TTTGGATCTT	0.998
TTTGGCAGCA	1.44
TTTGGCAGTA	0.966
TTTGGCCCTG	0.99
TTTGGCGATG	0.957
TTTGGGCCAA	0.987
TTTGGGCGCG	1.06

Sequence	switch fluorescence ratio
TTTGGGCGGC	1.02
TTTGGGGCG	1
TTTGGTAAAC	0.997
TTTGGTCGG	1.01
TTTGGTTCCA	0.996
TTTGTAGAAA	1.02
TTTGTCAAGA	1.02
TTTGTCAAGC	1.09
TTTGTCACTG	1.05
TTTGTCATTA	1.02
TTTGTGCGTA	1.08
TTTGTGCTAG	0.977
TTTTAACCAT	1.06
TTTTAAGACT	0.983
TTTTAAGATG	1.2
TTTTAATAAA	1.05
TTTTACCAGG	1.27
TTTTACGATC	1.04
TTTTACGGG	1.01
TTTTATCATT	0.985
TTTTCAAAGT	0.992
TTTTCATAAT	0.998
TTTTCATCGG	0.997
TTTTCATGTA	1.05
TTTTCCAAT	1.06
TTTTCCCACT	1.08

Sequence	switch fluorescence ratio
TTTTCCGT	1.01
TTTTCCGTGT	0.987
TTTTCGACAA	1.02
TTTTCGATGC	1.06
TTTTCGTAGT	1.14
TTTTCGTCG	0.998
TTTTGAGAAG	0.992
TTTTGCTCCC	1.34
TTTTGGACC	1.07
TTTTGGCGAT	1.06
TTTTGGCTG	0.965
TTTTGGCTGC	1.04
TTTTGGTGTA	1.02
TTTTGTCCGA	1.02
TTTTGTGACC	1.02
TTTTGTTA	0.988
TTTTGTTGC	1.01
TTTTTAATG	0.958
TTTTTCATAC	0.991
TTTTTCCGA	1.06
TTTTTCTAGG	0.979
TTTTTGACAG	1.06
TTTTTGCCAA	1.08
TTTTTGCCAT	1
TTTTTTAGG	1.03
TTTTTTCAC	1.02
